This is one part of the list. The full chains were built here from the parent and the listed change. Values near 0.05 are background.
B1: TEV protease; numbered along this chain (parent)
chain: MGESLFKGPRDYNPISSSICHLTNESDGHTTSLYGIGFGPFIITNKHLFRRNNGTLVVQSLHGVFKVKDTTTLQQHLVDGRDMIIIRMPKDFPPFPQKLKFREPQREERICLVTTNFQTKSMSSMVSDTSCTFPSGDGIFWKHWIQTKDGQCGSPLVSTRDGFIVGIHSASNFTNTNNYFTSVPKNFMELLTNQEAQQWVSGWRLNADSVLWGGHKVFMVKPEEPFQPVKEATQL

Variants of: B1
Assay: raw area under fraction-flipped curve 0-4 h after induction (AUC4h, not background-subtracted), DNA-recorder readout of cleavage of the substrate (dimensionless); higher = more cleavage of the substrate by the protease variant
Settings: temperature: 34 °C; time window: 0-4 h after rhamnose induction
Protocol: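 In vivo DNA recorder in E. coli TOP10(DE3) ΔrhaA at 34 °C. Each TEVp single-site mutant (parent TEVp 0) is paired with a single-site variant of the 7-mer TEVs (canonical ENLYFQ|S). The substrate sits between flexible linkers in a Bxb1-sfGFP-TEVs-SsrA fusion, so cleavage stabilises Bxb1 and speeds flipping of a recombination array, read by NGS. The value is the raw area under the fraction-flipped curve over 0-4 h after rhamnose induction (AUC4h), with ≥20 reads per time point. It is not background-subtracted; inactive controls average about 0.047.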
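Also: Bxb1 expression induced with 0.2% (w/v) L-rhamnose at OD600 near 0.5, cultures sampled hourly, flipped fraction per protease–substrate barcode pair counted by paired-end Illumina sequencing.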

Row | Variant | area with substrate ENLYFQC | area with substrate ENLYFQI | area with substrate ENLYFQK | area with substrate ENLYFQL | area with substrate ENLYFQM | area with substrate ENLYFQN | area with substrate ENLYFQR | area with substrate ENLYFQS | area with substrate ENLYFQT | area with substrate ENLYFQY | area with substrate ENLYFQG | area with substrate ENLYFQP | area with substrate ENLYFQD | area with substrate ENLYFQF | area with substrate ENLYFQV | area with substrate ENLYFQW | area with substrate ENLYFQH | area with substrate ENLYFQE | area with substrate ENLYFQQ
1 | K90C | 0.111 | 0.0755 | 0.0722 | 0.0612 | 0.0969 | 0.073 | 0.0561 | 0.101 | 0.0697 | 0.0715 |  |  |  |  |  |  |  |  | 
2 | V58E | 0.0507 |  |  |  | 0.0461 | 0.0338 |  | 0.0458 |  |  | 0.0539 | 0.0435 |  |  |  |  |  |  | 
3 | I167N | 0.0677 | 0.0562 | 0.059 | 0.047 | 0.0819 | 0.0548 | 0.061 | 0.0618 | 0.0348 | 0.045 | 0.0645 | 0.0543 | 0.0581 | 0.0562 | 0.0521 | 0.0589 |  |  | 
4 | I167H | 0.0794 | 0.0411 |  |  | 0.0493 | 0.0488 | 0.0527 | 0.0667 | 0.0458 | 0.0695 | 0.0869 |  |  | 0.0442 | 0.0656 |  | 0.062 |  | 
5 | T119P | 0.116 |  | 0.0723 |  | 0.0941 | 0.0733 |  | 0.0961 | 0.0635 |  |  | 0.073 | 0.067 |  |  | 0.0731 |  | 0.0545 | 
6 | L61V | 0.123 | 0.0756 | 0.0662 |  |  |  | 0.0624 | 0.105 | 0.0642 |  |  |  |  |  |  |  |  |  | 
7 | L61S | 0.104 | 0.0547 |  | 0.0461 |  |  | 0.0665 | 0.0989 | 0.0655 |  |  | 0.0583 |  | 0.0716 | 0.0771 | 0.0665 |  |  | 
8 | I139D | 0.0971 | 0.0515 | 0.0487 | 0.071 | 0.0801 | 0.0702 | 0.0563 | 0.102 | 0.0498 |  | 0.0942 | 0.0583 |  | 0.0471 | 0.059 |  | 0.0876 | 0.0573 | 
9 | I164R | 0.0543 | 0.0377 | 0.0535 | 0.0238 |  | 0.0296 | 0.0515 | 0.0545 | 0.0551 | 0.0548 |  |  | 0.0597 | 0.0518 | 0.055 | 0.0581 | 0.0512 |  | 0.0439
10 | S171P | 0.0531 | 0.0482 | 0.0543 | 0.0536 | 0.0617 |  | 0.0619 | 0.0593 | 0.0422 | 0.0633 | 0.0601 | 0.053 |  |  |  |  | 0.0622 |  | 0.0636
11 | K100A | 0.0652 | 0.0649 | 0.0707 |  | 0.0986 |  | 0.0553 | 0.114 |  |  |  |  | 0.0921 |  |  |  | 0.0564 | 0.0854 | 
12 | C111R | 0.103 |  | 0.092 |  |  | 0.0651 | 0.0369 | 0.109 |  |  | 0.128 |  | 0.076 |  |  |  | 0.0642 |  | 
13 | P96G | 0.127 |  |  |  |  | 0.0627 |  | 0.103 |  | 0.0859 |  |  |  |  |  |  | 0.0786 | 0.0386 | 
14 | G80Y | 0.141 |  | 0.0657 |  | 0.086 |  |  | 0.106 |  | 0.0732 | 0.0947 |  | 0.0544 |  | 0.0611 | 0.0856 |  |  | 0.0738
15 | T70Y | 0.0657 | 0.0591 | 0.0521 | 0.0642 | 0.0706 |  | 0.0572 | 0.0746 | 0.0643 |  | 0.068 | 0.061 |  | 0.0652 | 0.0576 |  | 0.0538 | 0.0452 | 0.0705
16 | I84Q | 0.0774 |  | 0.0589 | 0.048 | 0.0624 |  | 0.0575 | 0.0741 | 0.0382 |  |  | 0.0565 | 0.0541 |  | 0.0511 | 0.0528 |  |  | 
17 | V157Y | 0.0916 | 0.0598 | 0.0638 | 0.0528 |  | 0.0622 | 0.0435 | 0.0796 | 0.0567 |  | 0.0873 |  | 0.0686 | 0.0594 | 0.0486 | 0.05 |  |  | 0.0726
18 | Q151F | 0.112 |  | 0.0394 | 0.0482 | 0.0507 |  |  | 0.0792 | 0.0629 | 0.0558 | 0.089 |  |  |  |  | 0.0447 |  |  | 
19 | S130L | 0.0809 | 0.0559 |  | 0.0597 |  | 0.0702 | 0.0635 | 0.0752 | 0.0739 | 0.0758 | 0.0844 |  | 0.0548 |  | 0.0636 | 0.0676 | 0.0789 | 0.0699 | 
20 | M83P | 0.0555 |  | 0.0511 | 0.0684 | 0.0627 | 0.0534 | 0.0512 | 0.0531 | 0.0502 | 0.0473 | 0.0503 |  |  |  | 0.02 | 0.0534 | 0.0557 |  | 
21 | D128P | 0.129 |  | 0.0604 | 0.0634 |  |  |  | 0.121 | 0.0766 |  | 0.114 |  |  |  |  | 0.032 |  |  | 0.0763
22 | S123F | 0.111 | 0.0671 | 0.0717 | 0.0649 | 0.103 | 0.0856 | 0.0549 | 0.102 | 0.0697 |  | 0.144 |  | 0.0796 | 0.0084 |  | 0.0812 | 0.085 |  | 
23 | E108C | 0.0759 | 0.048 |  | 0.104 |  |  | 0.0627 | 0.0736 | 0.0654 |  | 0.0672 |  |  |  | 0.0407 | 0.0566 |  |  | 
24 | E108L | 0.0627 | 0.056 | 0.0559 | 0.0603 |  |  | 0.0479 | 0.0655 | 0.0529 |  |  |  | 0.0548 |  |  | 0.0604 |  |  | 0.0522
25 | T115S | 0.0815 |  | 0.0701 | 0.0652 | 0.0735 | 0.0852 |  | 0.109 | 0.0505 | 0.103 | 0.102 | 0.068 |  |  |  | 0.0603 | 0.104 | 0.0658 | 
26 | K142V | 0.147 | 0.0648 | 0.0653 | 0.0671 | 0.0942 | 0.0735 | 0.0596 | 0.0991 | 0.0741 | 0.0786 |  | 0.0542 | 0.0708 | 0.0769 |  | 0.0571 |  |  | 
27 | D161P | 0.0491 |  | 0.0565 |  | 0.0399 |  | 0.031 | 0.0527 |  |  | 0.0443 |  |  |  | 0.0541 | 0.0479 |  |  | 
28 | V67Q | 0.088 | 0.0566 | 0.0577 |  |  | 0.0678 | 0.0509 | 0.0825 | 0.0528 | 0.073 | 0.0908 |  | 0.0785 |  |  | 0.0599 |  |  | 
29 | V67H | 0.105 | 0.0508 | 0.0597 | 0.0552 | 0.0894 | 0.0819 | 0.0472 | 0.0965 | 0.0679 |  | 0.103 | 0.0606 | 0.0732 | 0.0629 | 0.0504 |  |  |  | 
30 | I85G | 0.0482 | 0.0382 | 0.0611 | 0.0412 |  | 0.0503 | 0.0517 | 0.0527 | 0.0559 |  | 0.0646 | 0.0513 |  | 0.0511 |  | 0.0513 |  | 0.0638 | 

Source: the supplement of paper PMC12217912
